These results are taken from the supplement of paper PMC9446081.

The campaign covered roughly 39,000 compounds. About 220 (0.56%) showed activity. Some of the results follow.
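Note: static incubation at 37 °C against the wild-type strain, values averaged over two biological replicates.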

The assay concerns Escherichia coli K-12 BW25113. Put plainly: relative growth (OD600 normalised to plate interquartile mean) (fraction); higher = less growth inhibition, active = 0.2 or less. The following applies: 50 µM; LB; incubation time: overnight (16-24 h).
`C[C@H](CO)N1C[C@H](C)[C@@H](CN(C)C(=O)Cc2ccccc2)Oc2cc(C#CC3(O)CCCC3)ccc2S1(=O)=O`: the relative growth was inactive: 1.01. For `CCC(=O)N(C)C[C@H]1Oc2ncc(C#C[C@H](C)O)cc2C(=O)N([C@@H](C)CO)C[C@H]1C` the value was inactive: 1.05; for `C[C@@H]1CCCCO[C@@H](CN(C)Cc2ccc(C(=O)O)cc2)[C@H](C)CN([C@@H](C)CO)C(=O)c2cc(NC(=O)Nc3ccc(F)cc3)ccc2O1`, inactive: 0.991; for `COc1ccc(S(=O)(=O)Nc2ccc3c(c2)CC(=O)N([C@@H](C)CO)C[C@@H](C)[C@@H](CN(C)Cc2ccc(-c4ccccc4)cc2)O3)cc1`, inactive: 1.02. As to `Cc1ccc(S(=O)(=O)Nc2ccc3c(c2)C(=O)N([C@@H](C)CO)C[C@H](C)[C@H](CN(C)C(=O)Nc2c(C)noc2C)OCCCC[C@H](C)O3)cc1`, the relative growth was inactive: 1.03. `O=C(O)CNC(=O)C1CCC1`: the relative growth was inactive: 1.01.

As for `C[C@@H](O)[C@@H](Nc1ncnc2ccccc12)C(=O)O`, the relative growth is inactive: 0.988. The same measure for `C(=N\n1cnnc1)/c1ccco1`: inactive: 0.988. Consider `Cc1noc(C)c1S(=O)(=O)Nc1cccc2c1O[C@H](CN(C)Cc1ccccc1)[C@H](C)CN([C@@H](C)CO)C2=O`, for which the relative growth is inactive: 1.

As for `C[C@@H]1CN([C@@H](C)CO)C(=O)c2cc(NC(=O)Cn3cnnn3)ccc2O[C@H]1CN(C)CC1CCCCC1`, the relative growth was inactive: 0.982. For `COc1ccc2c(c(Br)c(C(=O)O)n2CCCOc2cccc3ccccc23)c1-c1ccccc1C` the value was inactive: 1; for `C[C@@H]1CCCCO[C@H](CN(C)C(=O)Nc2ccc3c(c2)OCO3)[C@H](C)CN([C@H](C)CO)C(=O)c2cc(NC(=O)c3ccccc3)ccc2O1`, inactive: 1.02. As to `CC(C)N1C[C@@H](CN(C)Cc2ccc(Cl)c(Cl)c2)Oc2c(NC(=O)c3ccncc3)cccc2C1=O`, the relative growth is inactive: 1.

With `C[C@@H]1CCCCO[C@@H](CN(C)Cc2ccc(C(F)(F)F)cc2)[C@H](C)CN([C@H](C)CO)C(=O)c2cc(NS(=O)(=O)c3ccc(Cl)cc3)ccc2O1`, the relative growth is inactive: 1.01. `O=C(O)C1CCNCC1`: the relative growth is inactive: 0.901. As to `NCC[C@@H]1CC[C@@H](NC(=O)C2CCCC2)[C@@H](CO)O1`, the relative growth is inactive: 1. The same measure for `Cc1noc(C)c1NC(=O)N(C)C[C@@H]1Oc2ccc(NC(=O)Cn3cnnn3)cc2CC(=O)N([C@H](C)CO)C[C@@H]1C`: inactive: 1; for `CC(C)NC(=O)Nc1ccc2c(c1)C(=O)N(C)[C@H]1CC[C@H](CC(=O)NCc3ccc(F)cc3)O[C@@H]1CO2`: inactive: 0.954. For the molecule `C[C@H]1CN([C@@H](C)CO)C(=O)Cc2cc(NC(=O)Cc3cn(C)c4ccccc34)ccc2O[C@H]1CN(C)Cc1ccc(-c2ccccc2)cc1`, the relative growth is inactive: 1.01. The same measure for `C[C@@H]1CN([C@@H](C)CO)C(=O)c2cccc(NC(=O)c3ccncc3)c2O[C@H]1CN(C)Cc1ccc(Oc2ccccc2)cc1`: inactive: 1.01; for `C[C@H](CO)N1C[C@H](C)[C@H](CN(C)C(=O)Nc2cccc3ccccc23)OCCCC[C@H](C)Oc2ccc(NC(=O)Nc3ccc(F)cc3)cc2C1=O`: inactive: 1.03.

`O=C(O)[C@H]1CCCC[C@@H]1C(=O)N1CCOCC1`: the relative growth is inactive: 1.03. The same measure for `C[C@@H]1CN([C@H](C)CO)C(=O)c2cc(NS(=O)(=O)c3ccc(F)cc3)ccc2O[C@@H]1CN(C)C(=O)Nc1cccc2ccccc12`: inactive: 1.03.

For `C[C@@H]1CCCCO[C@@H](CN(C)C(=O)CCC(F)(F)F)[C@@H](C)CN([C@H](C)CO)C(=O)c2cc(NS(=O)(=O)c3ccc(F)cc3)ccc2O1`, the relative growth was inactive: 0.979. On to `C[C@@H]1CN([C@H](C)CO)C(=O)c2cc(NC(=O)Nc3ccc4c(c3)OCO4)ccc2O[C@@H](C)CCCCO[C@@H]1CN(C)Cc1ccncc1`, for which the relative growth was inactive: 0.985. The same measure for `C[C@H]1CN([C@@H](C)CO)S(=O)(=O)c2ccc(C#CCC3CCCC3)cc2O[C@H]1CN(C)C(=O)c1cnccn1`: inactive: 0.983. `C[C@H](CO)N1C[C@H](C)[C@H](CN(C)C(=O)Nc2cccc(F)c2)OCc2ccccc2-c2c(n(C)c3ccccc23)C1=O`: the relative growth was inactive: 1.01. For `C[C@H]1CN([C@@H](C)CO)C(=O)c2cc(NS(=O)(=O)c3ccc(F)cc3)ccc2O[C@@H]1CN(C)S(=O)(=O)c1ccc(F)cc1` the value was inactive: 0.997; for `CN1CCN(C(=O)C[C@@H]2CC[C@H]3[C@H](COc4ccc(NC(=O)c5cscn5)cc4C(=O)N3C)O2)CC1`, inactive: 0.98; for `C[C@H]1CN([C@@H](C)CO)C(=O)c2cccc(NS(=O)(=O)c3ccccc3)c2O[C@H]1CN(C)CC1CC1`, inactive: 0.985. For `O=C(C[C@H]1CC[C@@H](NS(=O)(=O)c2ccc(F)cc2)[C@H](CO)O1)N1CCC(Cc2ccccc2)CC1` the value was inactive: 0.994; for `Cc1cc(C(=O)Nc2cccc3c2O[C@H](CN(C)C(=O)Nc2ccccc2)[C@@H](C)CN([C@@H](C)CO)C3=O)n(C)n1`, inactive: 0.983.

Turning to `COCCNc1cc(NC(=O)N2CCCc3cc(CN4CCN(C)CC4=O)c(C=O)nc32)ncc1C#N`, the relative growth was inactive: 1.05. As for `COc1cccc(C(=O)Nc2ccc3c(c2)C(=O)N(C)[C@@H]2CC[C@H](CC(=O)NCC(F)(F)F)O[C@@H]2CO3)c1`, the relative growth is inactive: 0.96. Turning to `CC(C)N1CC=C[C@@]23O[C@@H]4C=CCOC(=O)[C@@H]4[C@H]2C(=O)N(CCCCCO)[C@@H]3C1=O`, the relative growth is inactive: 1.04.

For `C[C@@H]1CN([C@@H](C)CO)C(=O)c2cccc(NS(=O)(=O)c3cn(C)cn3)c2O[C@@H]1CN(C)S(=O)(=O)c1cn(C)cn1`, the relative growth is inactive: 1.01. Consider `O=S(=O)(Nn1cnnc1)c1ccccc1`, for which the relative growth is inactive: 1.02. For `C[C@@H]1CCCCO[C@@H](CN(C)Cc2ccc(C(F)(F)F)cc2)[C@@H](C)CN([C@H](C)CO)C(=O)c2cc(NC(=O)CCC(F)(F)F)ccc2O1`, the relative growth is inactive: 0.973.

`C[C@H](CO)N1C[C@H](C)[C@H](CN(C)C(=O)Nc2cccc(F)c2)OCc2ccccc2-c2ccccc2C1=O`: the relative growth is inactive: 0.971.

On to `CC(C)NC(=O)Nc1cccc2c1O[C@@H](CN(C)S(=O)(=O)c1cccs1)[C@@H](C)CN([C@@H](C)CO)C2=O`, for which the relative growth is inactive: 0.908. For `C[C@H](CO)N1C[C@H](C)[C@@H](CN(C)C(=O)NC2CCCCC2)Oc2ccc(NC(=O)Cn3cnnn3)cc2C1=O` the value was inactive: 1; for `O=C/C=C/c1ccccc1Cl`, inactive: 0.934; for `Cn1cnc(CCNC(=O)C[C@H]2CC[C@H]3[C@@H](COC[C@H](O)CN3C(=O)Nc3ccc(Cl)cc3)O2)c1`, inactive: 0.938.

Take `CCS(=O)(=O)N1C[C@]2(CN(C2)S(=O)(=O)c2cn(cn2)C)c2c(n(c3cc(ccc23)OC)C)[C@H]1CO`: the relative growth was inactive: 1.01. Regarding `CC(C)(C)OC(=O)C[C@H]1CC=CC[C@H](CC(=O)NCCO)C(=O)N[C@@H](Cc2c[nH]c3ccccc23)COC1=O`, the relative growth was inactive: 1.01. For `C[C@H]1CN([C@@H](C)CO)C(=O)Cc2cc(NC(=O)C3CC3)ccc2O[C@H]1CN(C)S(=O)(=O)c1ccccc1` the value was inactive: 0.99; for `C[C@@H]1CN([C@H](C)CO)C(=O)c2cc(NC(=O)CCCN(C)C)ccc2O[C@@H](C)CCCCO[C@@H]1CN(C)CC1CCCCC1`, inactive: 0.992. For `COc1ccc2c3c(n(c2c1)C)[C@@H](CO)N(C[C@]13CN(C1)C(=O)C1CCOCC1)C(=O)C1CCOCC1` the value was inactive: 1; for `CCS(=O)(=O)N1C[C@]2(C1)CN([C@@H](CO)c1c2c2ccc(cc2n1C)OC)S(=O)(=O)c1ccccc1`, inactive: 0.999.

For `Cc1noc(C)c1NC(=O)N(C)C[C@H]1Oc2ccc(NS(=O)(=O)c3cccs3)cc2CC(=O)N([C@@H](C)CO)C[C@@H]1C`, the relative growth was inactive: 1.01. For `C[C@@H]1CCCCO[C@H](CN(C)S(=O)(=O)c2ccc(Cl)cc2)[C@@H](C)CN([C@H](C)CO)C(=O)c2cc(NC(=O)c3ccncc3)ccc2O1` the value was inactive: 1.01; for `C=CCNC(=O)[C@H]1[C@@H]2C(=O)O[C@@H](c3ccccc3)[C@@H](c3ccccc3)N2[C@@H](c2ccc(O)cc2)[C@]12C(=O)N(C(=O)OCCOC)c1ccc(C#Cc3ccc(OC)cc3)cc12`, inactive: 1.05; for `C[C@H](CO)N1C[C@H](C)[C@H](CN(C)Cc2ccc(C(=O)Nc3ccccc3N)cc2)Oc2ccc(NS(=O)(=O)c3cn(C)cn3)cc2CC1=O`, inactive: 1.02. Regarding `C[C@@H]1CN([C@@H](C)CO)C(=O)c2cc(NC(=O)c3ccncc3)ccc2O[C@H]1CN(C)Cc1ccc2c(c1)OCO2`, the relative growth was inactive: 1.02.

In the case of `CCS(=O)(=O)N1C[C@]2(CN(C2)C(=O)CN2CCOCC2)c2c(n(c3cc(ccc23)OC)C)[C@H]1CO`, the relative growth was inactive: 1. On to `COc1ccc(NC(=O)N(C)C[C@H]2OCCCC[C@@H](C)Oc3ccc(NC(=O)Nc4ccc5c(c4)OCO5)cc3C(=O)N([C@H](C)CO)C[C@@H]2C)cc1`, for which the relative growth was inactive: 1. For `Cn1nnnc1NCc1ccccc1` the value was inactive: 1. The same measure for `C[C@@H]1CN([C@@H](C)CO)C(=O)c2cc(NS(=O)(=O)c3ccccc3)ccc2O[C@@H](C)CCCCO[C@@H]1CN(C)C(=O)C1CCCCC1`: inactive: 1.01; for `NC(=O)c1cc[n+](CC2=C(C(=O)O)N3C(=O)[C@@H](NC(=O)Cc4cccs4)[C@H]3SC2)cc1`: inactive: 1.04; for `CC(=O)OC1CCC2(C)C(CC(OC(C)=O)C3(C)C4=CC(=O)OC(c5ccoc5)C4(C)CCC23)C1(C)C` (stereo not drawn) [3alpha-ACETOXYDIHYDRODEOXYGEDUNIN]: inactive: 1.02. For `CCOC(=O)N(C)C[C@@H]1OCc2cn(nn2)CCCC(=O)N([C@@H](C)CO)C[C@H]1C` the value was inactive: 0.987.
